# Source: article PMC4336329 (PLoS ONE, 2015)
# The campaign covered roughly 310,000 compounds. About 2,200 (0.71%) showed an effect of 50% or more. Effects have a minus sign here. The list shows a part of the results.
# Biological target: human ether-à-go-go-related gene (hERG) potassium channel (human, UniProt Q12809)
# Test: primary screen, population patch clamp on CHO cells stably expressing hERG
# Sequence of human ether-à-go-go-related gene (hERG) potassium channel (Q12809 whole entry, looked up): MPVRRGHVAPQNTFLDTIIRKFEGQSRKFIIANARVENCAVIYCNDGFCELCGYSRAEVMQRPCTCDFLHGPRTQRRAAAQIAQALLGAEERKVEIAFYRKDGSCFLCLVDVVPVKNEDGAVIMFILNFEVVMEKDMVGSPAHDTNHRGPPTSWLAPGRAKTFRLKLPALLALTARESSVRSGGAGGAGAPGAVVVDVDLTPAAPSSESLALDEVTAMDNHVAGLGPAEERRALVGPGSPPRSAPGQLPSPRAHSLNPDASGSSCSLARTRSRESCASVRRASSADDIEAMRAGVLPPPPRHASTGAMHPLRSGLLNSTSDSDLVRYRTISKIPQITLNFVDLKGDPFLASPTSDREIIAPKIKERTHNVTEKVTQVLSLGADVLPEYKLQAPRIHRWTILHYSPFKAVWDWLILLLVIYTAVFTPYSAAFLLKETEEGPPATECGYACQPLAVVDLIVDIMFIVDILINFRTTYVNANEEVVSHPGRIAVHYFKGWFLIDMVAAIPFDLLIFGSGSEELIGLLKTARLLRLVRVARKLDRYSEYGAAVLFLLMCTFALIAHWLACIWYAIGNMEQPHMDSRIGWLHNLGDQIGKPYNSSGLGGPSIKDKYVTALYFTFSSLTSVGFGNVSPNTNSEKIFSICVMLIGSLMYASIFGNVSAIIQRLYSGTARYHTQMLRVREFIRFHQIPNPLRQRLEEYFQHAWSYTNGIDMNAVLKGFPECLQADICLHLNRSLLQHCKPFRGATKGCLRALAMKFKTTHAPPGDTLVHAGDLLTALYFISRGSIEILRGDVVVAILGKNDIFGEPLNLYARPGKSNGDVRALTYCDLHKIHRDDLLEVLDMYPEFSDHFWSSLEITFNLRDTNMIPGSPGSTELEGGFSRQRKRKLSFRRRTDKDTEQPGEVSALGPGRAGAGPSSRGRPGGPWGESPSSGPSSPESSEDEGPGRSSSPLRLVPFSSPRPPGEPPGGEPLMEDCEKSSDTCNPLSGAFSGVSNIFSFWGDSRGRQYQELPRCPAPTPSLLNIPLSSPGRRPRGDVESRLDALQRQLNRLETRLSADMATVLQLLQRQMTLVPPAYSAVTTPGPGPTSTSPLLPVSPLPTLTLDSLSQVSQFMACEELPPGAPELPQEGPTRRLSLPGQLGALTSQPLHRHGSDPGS
row,SMILES,"hERG current change (%, negative = inhibition) at 1uM [%]"
1,CC(Cl)C(=O)c1ccc2c(c1)CCN2C(=O)C1CC1 (stereo not shown),8.81
2,CC(=O)C1=C(O)C(=O)N(c2cccnc2)C1c1cccc([N+](=O)[O-])c1 (stereo not shown),-3.72
3,Cc1nc(C(F)(F)F)c(C(=O)O)cc1-c1nc(-c2ccccc2)cs1,18.6
4,COc1ccccc1CNCc1ccc(OC)c2ccccc12,10.7
5,Cc1cc(N2C(=O)CC(Cc3ccc(Cl)cc3)C2=O)no1 (stereo not shown),6.89
6,COc1ccccc1C(=O)Nc1ccc(S(=O)(=O)N2CCCCC2c2cccnc2)cc1 (stereo not shown),11.1
7,CSc1ncc(Cl)c(C(=O)Nc2ccccc2C)n1,-5.45
8,COc1ccc(/C=C(\NC(=O)c2ccc(OC)cc2)C(=O)NC(CCSC)C(=O)O)cc1 (stereo not shown),-12.9
9,COc1ccc(C(=O)Cn2c(=O)c(CCC(=O)O)nn3c4ccccc4nc23)cc1OC,-4.76
10,O=C(Cc1c(F)cccc1Cl)N(Cc1ccccc1)c1ccccn1,7.65
11,CC(=O)N(c1ccc2oc(=O)sc2c1)S(=O)(=O)c1cccc2cccnc12,10.7
12,Cc1nc(SCN2C(=O)c3ccccc3C2=O)n[nH]1,11.5
13,CSCCC(Nc1ncnc2ccc(Br)cc12)C(=O)O.Cl (stereo not shown),15.2
14,COc1ccc(CNC(=O)c2cnc3n(c2=O)CCS3)cc1,-3.08
15,COC(=O)c1cc(-c2cccc([N+](=O)[O-])c2)c2c(=O)n(C)c(=O)n(C)c2n1,13.4
16,COc1cc(NC(C)C(=O)N2CC(C)OC(C)C2)cc(OC)c1 (stereo not shown),6.7
17,Cc1sc2ncnc(SCC(=O)N3CCC(c4noc5ccc(F)cc45)CC3)c2c1C,9.72
18,Fc1ccc(Nc2nnc(C(F)(F)F)s2)cc1,9.01
19,Cc1cc(-n2c(C)cc(C(=O)CSc3nc4ccccc4c(=O)n3Cc3ccco3)c2C)no1,17.5
20,CCOCCCn1c(=NC(=O)c2ccco2)c(C(=O)OCC)cc2c(=O)n3cccc(C)c3nc21,-73.9
21,COCCCn1c(=O)c2ccccc2n(Cc2ccccc2C)c1=O,19.2
22,Cc1ccccc1C(=O)NC1CCN(CC(=O)NC2CCCCC2)CC1,0.348

row,SMILES,"hERG current change (%, negative = inhibition) at 1uM [%]"
1,CC(Oc1cccc(Cl)c1)C(=O)Nc1cc(=O)n(C)c(=O)n1C (stereo not shown),4.54
2,COCCCN1C(=O)C(=O)/C(=C(/O)c2ccc(C)cc2)C1/C=C/c1ccccc1 (stereo not shown),11.8
3,COc1cc(OC)c(C2CC(=O)N3CN(c4ccccc4C)CSC3=C2C#N)cc1OC (stereo not shown),-0.537
4,COC(=O)c1ccc(C2C(C(=O)c3cc4ccccc4o3)=C(O)C(=O)N2c2cc(C)on2)cc1 (stereo not shown),11.7
5,COc1ccccc1C(=O)NCC(=O)NC(C)c1ccc(-n2ccnc2)cc1 (stereo not shown),-2.86
6,CCN(CC)C(=O)c1ccc2c(c1[N+](=O)[O-])C(=O)c1ccccc1C2=O,8.64
7,COc1ccc(-c2csc(NC(=S)NC(=O)c3ccco3)n2)cc1Br,15.1
8,CC(C)Nc1ccc(Nc2ccccc2)cc1,12.4
9,Cc1cccc(C(=O)Nc2oc(-c3ccccc3)cc2C#N)c1,10.9
10,CCCN1C2CCCC1CC(NC(=O)c1ccc(C(C)(C)C)cc1)C2 (stereo not shown),-2.86
11,CN(C)CCCN(C(=O)c1cccs1)c1nc2cc3c(cc2s1)OCO3.Cl,-7.6
12,CCCCn1cnc2c1c(=O)[nH]c(=O)n2CCCC,1.93
13,O=C(c1ccccc1)N1CCN(C(=O)c2nn3c(C(F)(F)F)cc(-c4ccco4)nc3c2Cl)CC1,22.7
14,O=C(Cc1cccc(F)c1)N1CCCC(CO)(Cc2ccc(F)cc2F)C1 (stereo not shown),5.09
15,Cc1cccc(C(C)(C)C)c1OCCCCN1CCCC1.O=C(O)C(=O)O,-4.63
16,CC(=O)N1CC(C)Sc2ccc(S(=O)(=O)NCc3ccc(F)cc3)cc21 (stereo not shown),-12.2
17,CSC(=O)NC12CC3CC(CC(C)(C3)C1)C2,3.68
18,COc1ccc2c(=O)cc(-c3ccccc3F)oc2c1,15.6
19,CC(=O)c1cccc(NC(=O)CN2C(=O)C3C4C=CC(C4)C3C2=O)c1 (stereo not shown),11.2
20,COc1ccc(-c2[nH]ncc2N=Nc2ccccc2)cc1,15.7
21,COc1ccccc1OCC(=O)OCC(=O)Nc1ncc(Cl)cc1Cl,11.6
22,Nc1ccc2oc(C3CCCCC3)nc2c1,12.3

row,SMILES,"hERG current change (%, negative = inhibition) at 1uM [%]"
1,COc1ccc(N2CCN(C3=CC(=O)N(c4cccc(Cl)c4)C3=O)CC2)cc1,9.07
2,COc1ccc(C)cc1NC(=O)c1cccc(-c2ccc(OC(C)=O)cc2)c1,8.92
3,COC(=O)C(=NNc1c(C)n(C)n(-c2ccccc2)c1=O)C(=O)OC,15.4
4,CCc1nc(SCC(=O)N2CC(=O)Nc3ccccc32)c2c(C)c(C)sc2n1,14.8
5,CCOC(=O)CCc1c(C)nc2cc(-c3ccccc3OC)[nH]n2c1=O,13.9
6,Cc1cc(N=CC2=C(O)CC(C)(C)CC2=O)no1,-13.5
7,O=C(O)CC(Cc1ccccc1)C(=O)NCC12CC3CC(CC(C3)C1)C2 (stereo not shown),9.06
8,COc1cc(OC)c(C(=O)Nc2cccc(C(C)=O)c2)cc1OC,0.251
9,CC(C)CC1C(C#N)=C(N)Oc2c1c(=O)oc1ccccc21 (stereo not shown),7.62
10,CC12CC(NC(=O)N1c1cccc(C(=O)NCc3ccc4c(c3)OCO4)c1)c1cc(Cl)ccc1O2 (stereo not shown),-0.803
11,O=C(NCCC1=CCCCC1)c1ccc([N+](=O)[O-])cc1,5.61
12,Cc1ccc(S(=O)(=O)NNC(=O)c2cccnc2)cc1,14.1
13,COC(=O)c1c(C)oc2c1cc(NS(=O)(=O)c1ccc(C(=O)O)cc1)c1ccccc12,6.04
14,O=C(COc1ccc(Cl)cc1)Nc1ccc(Cl)cn1,-2
15,O=C(CSc1nc2ncccc2[nH]1)c1ccc(F)cc1,2.83
16,O=C(c1cc(=O)c2ccccc2o1)N1CCN(c2ccccc2F)CC1,9.26
17,COc1ccc(COC(=O)c2cccc(S(=O)(=O)N3CCCC3)c2)cc1F,-0.27
18,C=C1SC(=Nc2c(C)cccc2Cl)N(C(=O)c2sc3ccccc3c2Cl)C12CCCCC2,14.8
19,Cc1ccc2nc(SCC(=O)c3c(C)[nH]c4ccccc34)[nH]c2c1,17.4
20,COc1ccc(S(=O)(=O)Cc2ccc(C(=O)NCCc3ccc(S(N)(=O)=O)cc3)o2)cc1,12.1
21,COc1ccc(CCC(=O)NCc2ccccc2Cl)cc1OC,11.5
22,Cc1cc(C)cc(N(CC(=O)NC2CCC(C)CC2)S(=O)(=O)c2c(C)[nH]c(=O)[nH]c2=O)c1 (stereo not shown),5.29

row,SMILES,"hERG current change (%, negative = inhibition) at 1uM [%]"
1,COC(=O)/C=C1\NCCNC1=O,8.32
2,Cc1ccc(-c2nn(CCC(N)=O)c(=O)c3ccccc23)cc1,-1.18
3,CC(Oc1ccccc1)C(=O)N=Nc1c(O)[nH]c2ccc(Br)cc12 (stereo not shown),16.9
4,CC1(C)CC(=O)c2cc(OCC(=O)N3CCCCCC3)ccc2O1,-11
5,Cc1ccc(OC(=O)c2cccnc2)cc1,20.1
6,CCOC(=O)c1cccc(NC(=O)CSc2nnc(C3CCCCC3)n2CC)c1,5.81
7,Cl.OC(C#CCN1CCOCC1)(c1ccccc1)C1CCCC1 (stereo not shown),17
8,O=C(CC1C(=O)NCCN1Cc1ccc(F)c(F)c1)NCCCn1ccnc1 (stereo not shown),6.44
9,CC(C)(C)S(=O)(=O)c1nc2ccccc2s1,10.3
10,CCOCCCNC(=S)Nc1ccc2nc(N3CCN(CC)CC3)cc(C)c2c1,10.7
11,O=C(COc1cc(F)ccc1[N+](=O)[O-])NCCCc1ccccc1,3.23
12,Cc1ccc(NC(=O)CSCC(=O)NCc2cccc(C(F)(F)F)c2)cc1,6.6
13,COc1cc(CC(NC(C)=O)C(=O)NC2CCN(C(=O)c3ccc(C)cc3)CC2)cc(OC)c1 (stereo not shown),7.73
14,CCOc1ccc(N(CC(=O)NCCC2=CCCCC2)S(=O)(=O)c2ccccc2)cc1,19
15,CCOC(=O)c1cc(-c2ccccc2C)n(Cc2cc(C)no2)n1,5.9
16,CSc1nnc(NC(=O)c2ccc(C)c(S(=O)(=O)N3CCOCC3)c2)s1,3.61
17,Cc1ccsc1/C=N/NC(=O)c1nnn(-c2nonc2N)c1C(C)C,23.9
18,CC(=O)N(CCCN(C)C)c1nc2ccc(C)cc2s1.Cl,-8.07
19,CCOC(=O)N1CCN(c2c(-c3ccccc3)c3cc(Cl)ccc3[nH]c2=O)CC1,1.95
20,Cc1ccc(NC(=O)NC2CCCCCCC2)cc1,15
21,CC(Oc1ccccc1)C(=O)Nc1cccc(NC(=O)c2ccco2)c1 (stereo not shown),3.33
22,CC1CC(C)CN(S(=O)(=O)N2CCCC(C(=O)NCCc3ccc(Cl)cc3)C2)C1 (stereo not shown),13.1
